Several values for one entry are separate records, joined by “and”; a condition that tells them apart may be missing. Equal values may be shown once.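 Dose response: 5 concentrations. Exposure: 48 h. Format: 96-well plates. Endpoint: linear interpolation; highest concentration if not reached. GI50 = concentration required for 50% inhibition of growth. At the TGI there is no net growth.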 Bounds are passed on as bounds.

The subject of the experiment is NCI-H322M lung. Nature of the experiment: DTP human tumour cell line panel, 48 h.
Consider `CC[C@@H]1OC2(C)CC(S(=O)(=O)c3ccccc3)CC1O2` (some centres not stated), for which the TGI was greater than 100 µM.

Consider `O=C(CCN1CCCC1)Nc1ccc2c(NCCCc3ccccc3)c3ccccc3nc2c1`, for which the GI50 is 1.3 µM and the TGI is 2.75 µM. With `Cn1cnc([N+](=O)[O-])c1Sc1ncnc2c1ncn2C1OC(CO)C(O)C1O` (configuration not stated), the GI50 was 7.58 µM and the TGI was greater than 100 µM. For `O=c1cccccc1NCCCCNc1cccccc1=O`, the TGI is greater than 100 µM. On the same count and under the same terms, as for `O=Cc1coc2ccccc2c1=O`, the figure is greater than 100 µM; as for `Cc1cc(=Nc2ccc3c(c2)c(N)cc(C)[n+]3C)nc(N)n1C`, greater than 100 µM. The same measure, in the same setting: as for `CCN(CC)CCCNC(=O)Cc1ccccc1Nc1c(Cl)cccc1Cl`, the figure is 28.9 µM; as for `C[C@@H]1C(O)CC[C@H](C)C12CC=CC2=O` (some centres not stated), greater than 100 µM. Same read-out and setting: as for `N#Cc1c(-c2ccc(Cl)cc2)c(C#N)c(=O)n(NS(=O)(=O)c2ccccc2)c1-c1ccccc1`, the figure is greater than 25 µM. Take `O=C(/C=C/c1ccco1)Nc1ncc(Cc2ccc(F)cc2)s1`: the GI50 is 0.23 µM and the TGI was greater than 100 µM. For the compound `CC(C)(C)CC(C)(C)c1ccc(OCCOCCSC(=N)N)cc1`, the GI50 was 2.92 µM and the TGI came to 9.15 µM.

In the case of `NC(CSC(c1ccccc1)(c1ccccc1)c1ccc2ccccc2c1)C(=O)O` (configuration not stated), the GI50 is 0.0478 µM and the TGI was 23.8 µM.

Compound `CCc1cccc(C)c1NC(=O)NS(=O)(=O)c1ccc(C)cc1` came in with a TGI greater than 100 µM.

Turning to `Cn1c(=O)n(CC(Br)CBr)c(=O)n(CC(Br)CBr)c1=O` (configuration not stated), the TGI was greater than 100 µM.

Compound `NNC(=O)c1n[nH]nc1SSc1n[nH]nc1C(=O)NN` gave a TGI greater than 100 µM. The same measure, in the same setting: in the case of `CN1OC(=O)N(C)C1c1ccccc1` (configuration not stated) it was greater than 100 µM. Compound `COc1ccc(C(=O)C=C2NCCN2)cc1` returned a concentration for total growth inhibition (TGI) greater than 100 µM. On to `CC(C)[Si]1(C(C)C)OCC2OC(n3ccc(=O)[nH]c3=O)C(O)(CO)C2O[Si](C(C)C)(C(C)C)O1` (configuration not stated), for which the TGI is 30.8 µM.

`c1ccc(-c2cc(-c3cc(-c4ccccc4)n(-c4ccccc4)n3)nn2-c2ccccc2)cc1` registered a TGI greater than 100 µM. `O=c1[nH]c(-c2ccc(C(F)(F)F)cc2)nc2c1CSCC2`: the GI50 was greater than 67.2 µM and the TGI was greater than 100 µM.

Regarding `CC(C)(C)OC(=O)NC(Cc1ccc([N+](=O)[O-])cc1)C(=O)NC(CCCCNC(=O)OCc1ccccc1)C(=O)ON1C(=O)CCC1=O` (configuration not stated), the TGI is greater than 100 µM. In the case of `COc1ccc(C(O)c2cc3c(N)c(C(=O)Nc4cccc(Br)c4)sc3nc2C)cc1` (configuration not stated), the GI50 was 0.264 µM and the TGI was greater than 100 µM. The compound `Cc1ccc2c(O)c3c(cc2c1)C(=O)c1c2c(cc(O)c1C3=O)C1(C)OC(O2)C(O)C(N(C)C)C1O` (configuration not stated) displayed a total growth inhibition concentration (TGI) of 2.91 µM. Compound `CCCc1c2c3ccccc3nc-2nc2ccccn12` returned a TGI greater than 100 µM. In turn, `O=[N+]([O-])C1(C2([N+](=O)[O-])CCCC2)CCCC1` yielded a TGI greater than 100 µM. The same measure, in the same setting: as for `Oc1ccc2ccccc2c1N=Nc1ccccc1`, the figure is greater than 100 µM. As for `COc1ccc(/C=C\c2cc(OC)c(OC)c(OC)c2)c(NS(=O)(=O)c2ccc(C)cc2)c1O`, the GI50 was 0.0779 µM and the TGI was greater than 100 µM.

For the compound `CSCCC(NC(c1ccccc1)c1ccccc1)[P+](=O)O` (configuration not stated), the TGI was greater than 100 µM. With `CCCCCCCCCN1CCC(=O)C(C(=O)OC)C1` (configuration not stated), the TGI is greater than 100 µM. Same read-out and setting: as for `O=C1C2=C(c3ccccc31)C(c1ccccc1Cl)N1C(=O)CSC1=N2` (configuration not stated), the figure is greater than 100 µM. `C=C(C)C1/C=C(/C(C)C)CC[C@]2(C)O[C@@H]2CC[C@H](C)CC1=O` (some centres not stated): the GI50 was greater than 100 µM and the TGI is greater than 100 µM. The compound `COc1cc(Br)c(CC2=NCCc3cc(OC)c(OC)cc32)cc1OC` gave a TGI greater than 100 µM. The same measure, in the same setting: in the case of `CN1C[C@@H]2CCCN2P1Oc1cccc2cccnc12` (some centres not stated) it was greater than 100 µM. In the case of `COC(=O)CCC1=C(C)c2cc3[n-]c(cc4nc(cc5[n-]c(cc1n2)c(CCC(=O)OC)c5C)C=C4C)cc3C.[Cd+2]`, the GI50 is 33.9 µM and the TGI was greater than 100 µM. Take `Nc1ncc(Cc2nc3ccccc3s2)s1`: the total growth inhibition concentration (TGI) is greater than 100 µM. In the case of `CC/C=C\CCC/C=C1/C(=O)C=C[C@@H]1C/C=C\CCCC(=O)O`, the GI50 is 4.46 µM and the TGI is 17.9 µM. The corresponding values for `N#Cc1nc(-c2ccccc2)oc1S(=O)(=O)N1CCOCC1` are 19.2 µM and 60.1 µM. As for `CCOC(=O)CCC(NC(=O)OCc1ccccc1)C(=O)NC(CCC(=O)OCC)C(=O)NC(CCC(=O)OCC)C(=O)NC(CCC(=O)OCC)C(=O)NC(CCC(=O)OCC)C(=O)OCC` (configuration not stated), the TGI was greater than 100 µM. Take `COc1ccccc1-n1c(SCc2cc(OC)c(OC)c(OC)c2)nc2ccc(Cl)cc2c1=O`: the GI50 was 6.11 µM and the TGI is greater than 100 µM.

`CSc1c(C#N)c2n(c3ccccc3[n+]2C)c2ncccc12` came in with a TGI greater than 100 µM. Still for that read-out and setting: in the case of `C=C1C(=O)OC2/C=C(\C)C(O)/C=C\C(C)(O)CC(OC(=O)/C(C)=C/C)C12` (configuration not stated) it was greater than 100 µM. Turning to `O=Nc1c(O)ccc2ccccc12`, the GI50 was 14.8 µM and the TGI was 28 µM. For the compound `CCOC(=O)c1nc2cc(C(F)(F)F)ccc2nc1Nc1ccc(Cl)c(Cl)c1`, the TGI is greater than 100 µM.

Compound `CCNCC(O)c1ccc(N)c([N+](=O)[O-])c1` (configuration not stated) yielded a TGI greater than 100 µM. Take `CN(Cc1cnc2nc(N)nc(N)c2n1)c1ccc(C(=O)NC(CCC(=O)O)C(=O)O)cc1` (configuration not stated): the GI50 is 0.406 µM and the concentration for total growth inhibition (TGI) was greater than 100 µM. In the same order, the values of `CC[C@H](C)[C@H](NC(=O)C12C3C4C1C1C2C3C41NC(C)=O)C(=O)N(C)[C@H](C[C@@H](OC(C)=O)c1nc(C(=O)N[C@@H](Cc2ccccc2)C[C@H](C)C(=O)OC)cs1)C(C)C` (some centres not stated) are 0.995 µM and greater than 14.3 µM. As to `COc1cc2c(cc1C)n(O)c(C)c(C(=O)C/C(=N/NC(=O)C[N+](C)(C)C)C(=O)Nc1cccc(Cl)c1C)[n+]2=O`, the TGI was greater than 100 µM. For `Oc1c(CN2CCCC2)cc(COCc2ccccc2)c2cccnc12`, the GI50 is 1.07 µM and the TGI was found to be 11.4 µM. For `Cc1cn(C2CC(N=[N+]=[N-])C(CO[Si](C)(C)C(C)(C)C)O2)c(=O)[nH]c1=O` (configuration not stated), the TGI is 38.8 µM.

`CC1(C)OCN(c2ccc(Cl)cc2)Cn2c1nc1ccccc12` displayed a TGI greater than 100 µM. Still for that read-out and setting: as for `S=C1C=C(c2ccccc2)Sc2ccccc2N1`, the figure is greater than 100 µM; as for `Cc1ccc(C2=Nc3c(N)nc(N)nc3NC(c3ccccc3)C2)cc1` (configuration not stated), 29.2 µM and 32 µM; as for `O=C(/C=C/c1ccc(Cl)c(Cl)c1)Oc1ccc(/C=C2\CCCCC2=O)cc1`, greater than 100 µM. Still for that read-out and setting: as for `O=c1c([Se]c2coc3ccccc3c2=O)coc2ccccc12`, the figure is 12.5 µM; as for `COC(=O)C1=C(O)C(C(=O)OC)[C@]2(O)[C@H](C(=O)OC)[C@H]1C[C@@H](c1ccc(OC)cc1)[C@H]2C(=O)OC` (some centres not stated), 88.4 µM. Still for that read-out and setting: in the case of `CC(=O)OC1CCC2(C)C(=CC(C3C=C4CC(OC(C)=O)CCC4(C)C4=C3C3CC5OC6(CCC(C)CO6)C(C)C5C3(C)CC4)C3=C2CCC2(C)C3CC3OC4(CCC(C)CO4)C(C)C32)C1` (configuration not stated) it was 62.8 µM; in that of `C=C(Cl)C(Cl)(CBr)CCC(Cl)C(C)(C)Cl` (configuration not stated), 8.4 µM. The compound `Fc1ccc(C(OCCN2CCC3CCC(C2)N3Cc2cc3ccccc3[nH]2)c2ccc(F)cc2)cc1` (configuration not stated) registered a total growth inhibition concentration (TGI) of 8.01 µM.

Regarding `O=C(/C=C\c1ccnc2ccccc12)c1ccc([N+](=O)[O-])cc1`, the GI50 is greater than 100 µM and the TGI is greater than 100 µM.

`COc1ccc2c(c1)CC[C@@H]1C2CC[C@]2(C)C(=O)NC(=O)CC12` (some centres not stated) returned a TGI greater than 100 µM.

In the case of `COc1ccc(C2S/C(=C\c3ccc(OC)cc3OC)C(=O)N2NC(=O)Cc2ccccc2)cc1` (configuration not stated), the TGI is greater than 100 µM. On the same count and under the same terms, as for `C=CCn1c(=O)c(C)cn(/C(=C/C(=O)OCC)C(=O)OCC)c1=O`, the figure is greater than 100 µM; as for `Cc1nc(-c2nc([N+](=O)[O-])c([N+](=O)[O-])[nH]2)cs1`, greater than 100 µM. With `C=C(C)[C@H]1CC/C(C)=C/CCC(C)C(=O)CC/C(CO)=C\[C@@H]1O` (some centres not stated), the GI50 is greater than 100 µM and the TGI is greater than 100 µM.

Regarding `CC#CC(=O)N1CCC[C@H]1c1nc(-c2ccc(C(=O)Nc3ccccn3)cc2)c2c(N)nccn12`, the GI50 is 24 µM and the TGI was greater than 100 µM. Compound `C#CCOC(=O)c1ccccc1OC(C)=O` came in with a TGI greater than 100 µM. On the same count and under the same terms, in the case of `Fc1ccccc1C1CC(C(c2ccccc2)c2ccccc2)=Nc2ccccc2S1` (configuration not stated) it was 26.4 µM.

In the case of `COc1cc(C2C(C#N)=C(N)OC3=C2C(=O)c2ccccc2C3=O)cc(OC)c1OC` (configuration not stated), the GI50 is 10.4 µM and the TGI came out at 41.2 µM.

In turn, `COc1nc(=O)n(C2CC(N=[N+]=[N-])C(CO)O2)cc1C` (configuration not stated) came in with a TGI greater than 100 µM. The same measure, in the same setting: in the case of `CC(C)(C)/C(O)=C\c1nc2cc(C(F)(F)F)ccc2[nH]c1=O` it was greater than 100 µM. The same measure, in the same setting: in the case of `O=C1c2cc(CCl)sc2C(=O)c2ccsc21` it was 2.63 µM; in that of `O=C1C(c2ccccc2)=C(c2ccccc2)C(c2ccc(CCCCCCc3ccc(C4=C(c5ccccc5)C(=O)C(c5ccccc5)=C4c4ccccc4)cc3)cc2)=C1c1ccccc1`, greater than 100 µM; in that of `C[C@@H]1CCC2[C@@H](C)C(=O)O[C@@H]3C4C[C@@H]1[C@@]23OO[C@@]4(C)O` (some centres not stated), greater than 100 µM. On to `C[C@H]1[C@@H](OCC(CO[C@H]2O[C@@H]3O[C@@]4(C)CC[C@H]5[C@H](C)CC[C@@H]([C@H]2C)[C@@]35OO4)=NOCC(=O)O)OC2O[C@@]3(C)CC[C@H]4[C@H](C)CC[C@@H]1[C@@]24OO3` (some centres not stated), for which the GI50 is 10.7 µM and the TGI stood at 23.3 µM. In the case of `COc1cc2c(cc1OC)C(Cl)C(c1cc(OC)c(OC)c(OC)c1)=C2Cl` (configuration not stated), the TGI was found to be 34.5 µM. As for `COC1=C(OC)CCC(/C(C#N)=C/c2ccc(OC)c(OC)c2)=C1`, the concentration for total growth inhibition (TGI) was greater than 100 µM. Same read-out and setting: in the case of `NC(=O)N(O)c1cccc(Br)c1` it was greater than 100 µM.

The compound `COc1cc2c(c(OC)c1OC)C(=O)CC2N` (configuration not stated) had a TGI greater than 100 µM. On the same count and under the same terms, in the case of `COc1cccc(C2C(C(=O)Nc3cc(=O)n(C)c(=O)n3C)=C(C)NC(C)=C2C(=O)Nc2cc(=O)n(C)c(=O)n2C)c1O` it was greater than 100 µM. For the compound `Oc1ccccc1-n1c(-c2ccccc2)ccc1-c1ccccc1`, the GI50 is 10.3 µM and the TGI is 26.3 µM. In turn, `Cc1ccc(S(=O)(=O)N/N=C2\C=C[C@]3(CC2)C(=O)N(C)c2ccccc23)cc1` had a TGI greater than 100 µM. Same read-out and setting: as for `Cc1n[nH]c(=O)n1N=C(c1ccccc1)c1ccccc1`, the figure is greater than 100 µM. As to `Cc1nc(NC(=O)N2CCC[C@H]2C(N)=O)sc1-c1ccnc(C(C)(C)C(F)(F)F)c1`, the GI50 was 2.27 µM and 3.16 µM; the total growth inhibition concentration (TGI) is 23.6 µM and > 10 µM.

A word on the TGI: it is the concentration at which net growth stops. A lower TGI goes with more potent growth arrest. Usually GI50 stands for the concentration giving 50% growth inhibition.

The values are drawn from PubChem BioAssay (NCI).
